From PubChem BioAssay (NCI)
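Following 48 hours of exposure in 96-well plates, responses at five concentrations were used to interpolate endpoints linearly. TGI: concentration producing complete growth inhibition.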 The source holds more than one record for some entries. This is not the full list of results. The source may hold further records. For part of these data: Records of one sample usually come from different ranges of test concentrations, not given here; a value can be the end of its range. For part of these data: The records of an entry repeat one measurement in other runs, samples, wells, individuals or studies. Marks in square brackets tell the records apart. Letters hold for one entry only.

Columns and labels:
Assay in all cases: NCI tumour cell line growth inhibition, 48 h
IGROV1 ovarian = tested on: IGROV1 ovarian
MALME-3M melanoma = tested on: MALME-3M melanoma
SK-MEL-5 melanoma = tested on: SK-MEL-5 melanoma
HT29 colon = tested on: HT29 colon
LOX IMVI melanoma = tested on: LOX IMVI melanoma
MDA-MB-435 = tested on: MDA-MB-435
NCI-H460 lung = tested on: NCI-H460 lung
NCI-H522 lung = tested on: NCI-H522 lung
RXF 393 renal = tested on: RXF 393 renal
SN12C renal = tested on: SN12C renal
U251 CNS = tested on: U251 CNS
UACC-62 melanoma = tested on: UACC-62 melanoma
A549 NSCLC = tested on: A549 NSCLC
OVCAR-3 ovarian = tested on: OVCAR-3 ovarian
CAKI-1 renal = tested on: CAKI-1 renal
CCRF-CEM leukemia = tested on: CCRF-CEM leukemia
COLO 205 colon = tested on: COLO 205 colon
DLD-1 colon = tested on: DLD-1 colon
DMS 114 small cell lung = tested on: DMS 114 small cell lung
DMS 273 small cell lung = tested on: DMS 273 small cell lung
EKVX NSCLC = tested on: EKVX NSCLC
HCC-2998 colon = tested on: HCC-2998 colon
HCT-116 colon = tested on: HCT-116 colon
HCT-15 colon = tested on: HCT-15 colon
HL-60(TB) leukemia = tested on: HL-60(TB) leukemia
HOP-18 NSCLC = tested on: HOP-18 NSCLC
HOP-62 NSCLC = tested on: HOP-62 NSCLC
HOP-92 NSCLC = tested on: HOP-92 NSCLC
K-562 leukemia = tested on: K-562 leukemia
KM12 colon = tested on: KM12 colon
KM20L2 colon = tested on: KM20L2 colon
M19-MEL melanoma = tested on: M19-MEL melanoma
MCF7 breast = tested on: MCF7 breast
MOLT-4 leukemia = tested on: MOLT-4 leukemia
NCI-H23 lung = tested on: NCI-H23 lung
NCI/ADR-RES ovarian = tested on: NCI/ADR-RES ovarian
OVCAR-4 ovarian = tested on: OVCAR-4 ovarian
OVCAR-5 ovarian = tested on: OVCAR-5 ovarian
OVCAR-8 ovarian = tested on: OVCAR-8 ovarian
P388 leukemia = tested on: P388 leukemia
P388/ADR leukemia = tested on: P388/ADR leukemia
RPMI-8226 leukemia = tested on: RPMI-8226 leukemia
SF-268 CNS = tested on: SF-268 CNS
SF-295 CNS = tested on: SF-295 CNS
SF-539 CNS = tested on: SF-539 CNS
SK-MEL-2 melanoma = tested on: SK-MEL-2 melanoma
SK-MEL-28 melanoma = tested on: SK-MEL-28 melanoma
SK-OV-3 ovarian = tested on: SK-OV-3 ovarian
SN12K1 renal = tested on: SN12K1 renal
SNB-19 CNS = tested on: SNB-19 CNS
SNB-75 CNS = tested on: SNB-75 CNS
SNB-78 CNS = tested on: SNB-78 CNS
SR leukemia = tested on: SR leukemia
SW-620 colon = tested on: SW-620 colon
UACC-257 melanoma = tested on: UACC-257 melanoma
UO-31 renal = tested on: UO-31 renal
XF 498 CNS = tested on: XF 498 CNS
HS 578T breast = tested on: HS 578T breast
NCI-H226 lung = tested on: NCI-H226 lung
PC-3 prostate = tested on: PC-3 prostate

SMILES: O=c1cc(-c2cccc(Cl)c2)[nH]c2cc3c(cc12)OCO3
- TGI (IGROV1 ovarian): 554 nM and > 100 µM
- TGI (MALME-3M melanoma): 553 nM and > 100 µM
- TGI (SK-MEL-5 melanoma): 377 nM and 15.8 µM

SMILES: COC1C(OC(=O)/C=C/C=C/C=C/C=C/C(=O)O)CCC2(CO2)C1C1(C)OC1CC=C(C)C (configuration not stated)
- TGI (HT29 colon): 601 nM and > 82.1 µM
- TGI (LOX IMVI melanoma): 859 nM and > 78.1 µM
- TGI (MDA-MB-435): 419 nM and 41.1 µM
- TGI (NCI-H460 lung): 584 nM and > 100 µM
- TGI (NCI-H522 lung): 656 nM and 78.7 µM
- TGI (RXF 393 renal): 702 nM and 97.9 µM
- TGI (SN12C renal): 926 nM and > 89.1 µM
- TGI (U251 CNS): 739 nM and > 100 µM
- TGI (UACC-62 melanoma): 316 nM and 79.2 µM

SMILES: CC[C@@H]1C(=O)N(C)c2cnc(Nc3ccc(C(=O)NC4CCC(N5CCN(CC6CC6)CC5)CC4)cc3OC)nc2N1C(C)C (some centres not stated)
- TGI (A549 NSCLC): > 10 µM [sample A, mean of 2 tests] and 989 nM [sample B, mean of 2 tests]
- TGI (OVCAR-3 ovarian): > 4.29 µM [sample A, mean of 2 tests] and 105 nM [sample B, mean of 2 tests]

SMILES: COc1cccc2c1C(=O)c1c(O)c3c(c(O)c1C2=O)C[C@@](O)(C(=O)CO)C[C@@H]3OC1CC(N2CCOCC2)C(O)C(C)O1 (some centres not stated)
- TGI (A549 NSCLC): 0.25 nM [1 test] and 591 nM [mean of 4 tests] and 0.00738 nM [mean of 5 tests] and 1.16 µM [mean of 7 tests] and 436 nM [mean of 8 tests]
- TGI (CAKI-1 renal): 0.25 nM [1 test] and 49.1 nM [mean of 3 tests] and 0.0152 nM, 60.6 nM [mean of 4 tests] and 183 nM [mean of 8 tests]
- TGI (CCRF-CEM leukemia): 8.69 nM, 97.8 nM, 1.06 µM, 49.4 nM
- TGI (COLO 205 colon): 0.00616, 0.25, 52, 126, 5.36 nM
- TGI (DLD-1 colon): 0.25 nM, 53.9 nM, 2.13 µM, 623 nM
- TGI (DMS 114 small cell lung): 18 nM, 125 nM, 6.03 nM
- TGI (DMS 273 small cell lung): 0.00541, 8.05, 27.6, 78.2, 3.66 nM
- TGI (EKVX NSCLC): 8.3, 67.8, 264, 4.75 nM
- TGI (HCC-2998 colon): 0.02 nM [mean of 4 tests] and 13.9 nM [mean of 6 tests] and 3.49 nM [mean of 7 tests] and 195 nM [mean of 8 tests]
- TGI (HCT-116 colon): 0.0602 nM, 288 nM, 395 nM, 2.23 µM
- TGI (HCT-15 colon): 0.25, 8.27, 47.1, 427, 291 nM
- TGI (HL-60(TB) leukemia): 8.07, 29, 173, 6.73 nM
- TGI (HOP-18 NSCLC): 17.2 nM, 687 nM, 121 nM
- TGI (HOP-62 NSCLC): 0.25 nM [1 test] and 36.6 nM, 4.72 nM [mean of 7 tests] and 323 nM [mean of 8 tests]
- TGI (HOP-92 NSCLC): 8.82, 31.4, 161, 3.16 nM
- TGI (HT29 colon): 0.25 nM [1 test] and 56.4 nM [mean of 5 tests] and 94.7 nM [mean of 6 tests] and 1.42 µM [mean of 7 tests]
- TGI (IGROV1 ovarian): 0.00676 nM, 0.25 nM, 212 nM, 598 nM, 2.34 µM
- TGI (K-562 leukemia): 8.99, 52.3, 837, 197 nM
- TGI (KM12 colon): 11.5 nM [mean of 2 tests] and 9.16 nM [mean of 4 tests] and 0.02 nM [mean of 5 tests] and 58.5 nM [mean of 6 tests] and 489 nM [mean of 8 tests]
- TGI (KM20L2 colon): 0.25, 7.58, 93.5, 382, 17.1 nM
- TGI (LOX IMVI melanoma): 0.0318, 38.3, 84, 233 nM
- TGI (M19-MEL melanoma): 0.25, 14.9, 40.3, 21.4 nM
- TGI (MALME-3M melanoma): 19.4 nM, 73.9 nM, 3.26 nM
- TGI (MCF7 breast): 0.25 nM, 1.09 µM, 1.29 µM, 221 nM
- TGI (MOLT-4 leukemia): 0.25, 8.48, 18, 110, 192 nM
- TGI (NCI-H23 lung): 0.25, 15.9, 127, 28.6 nM
- TGI (NCI-H460 lung): 8.28, 48.5, 333, 18.3 nM
- TGI (NCI-H522 lung): 0.25 nM, 7.65 nM, < 16.9 nM, 192 nM, 8.9 nM
- TGI (NCI/ADR-RES ovarian): 0.011 nM, 376 nM, 1.87 µM, 42.7 nM
- TGI (OVCAR-3 ovarian): 0.25, 26.6, 744, 19.5 nM
- TGI (OVCAR-4 ovarian): 0.133 nM [1 test] and 95.2 nM [mean of 6 tests] and 424 nM, 16.4 nM [mean of 8 tests]
- TGI (OVCAR-5 ovarian): 0.25, 8.46, 42.3, 598, 11.2 nM
- TGI (OVCAR-8 ovarian): 0.00768, 8.66, 85.2, 507, 45.5 nM
- TGI (P388 leukemia): 0.02, 0.25, 22.9, 33 nM
- TGI (P388/ADR leukemia): 46.5 nM and 3.1 nM
- TGI (RPMI-8226 leukemia): 7.77, 27.4, 184, 43.2 nM
- TGI (RXF 393 renal): 0.0371, 10.5, 86.3, 5.86 nM
- TGI (SF-268 CNS): 0.25 nM [1 test] and 44.3 nM [mean of 6 tests] and 223 nM [mean of 7 tests] and 268 nM [mean of 9 tests]
- TGI (SF-295 CNS): 0.00686, 0.25, 9.99, 39.8, 156, 3.39 nM
- TGI (SF-539 CNS): 0.25, 15.6, 133, 2.78 nM
- TGI (SK-MEL-2 melanoma): 0.25, 7.28, 20.5, 122, 2.54 nM
- TGI (SK-MEL-28 melanoma): 0.25, 49.1, 209, 5.55 nM
- TGI (SK-MEL-5 melanoma): 0.00608, 0.25, 24.4, 70, 2.8 nM
- TGI (SK-OV-3 ovarian): 0.25, 258, 713, 105 nM
- TGI (SN12C renal): 0.25, 404, 768, 952 nM
- TGI (SN12K1 renal): 0.115 nM [1 test] and 22.7 nM [mean of 4 tests] and 19.6 nM [mean of 5 tests]
- TGI (SNB-19 CNS): 9.42 nM, 1.65 µM, 740 nM, 1.49 µM
- TGI (SNB-75 CNS): 0.25, 15.5, 37.9, 2.67 nM
- TGI (SNB-78 CNS): 0.25 nM, 9.42 nM, 550 nM, 3.02 µM, 46.8 nM
- TGI (SR leukemia): 7.32 nM and 171 nM
- TGI (SW-620 colon): 0.00665 nM, 0.25 nM, 9.78 nM, 216 nM, 1.55 µM, 982 nM
- TGI (U251 CNS): 0.00739 nM, 0.25 nM, 136 nM, 1.69 µM, 508 nM
- TGI (UACC-257 melanoma): 8.35, 18, 133, 4.32 nM
- TGI (UACC-62 melanoma): 0.0865 nM [1 test] and 7.62 nM [mean of 4 tests] and 9.73 nM [mean of 7 tests] and 16.9 nM [mean of 8 tests]
- TGI (UO-31 renal): 0.25 nM, 418 nM, 107 nM, < 16.3 nM
- TGI (XF 498 CNS): 9.25 nM, 44.6 nM, 2.79 nM

SMILES: COc1ccc2c(c1[N+](=O)[O-])CC[C@@H]1[C@@H]2CC[C@]2(C)C(=O)CC[C@@H]12
- TGI (CCRF-CEM leukemia): 18 µM and > 1 mM
- TGI (COLO 205 colon): 25 µM and > 1 mM
- TGI (HCT-116 colon): 22.3 µM and > 1 mM
- TGI (HL-60(TB) leukemia): 25 µM and > 1 mM
- TGI (HOP-92 NSCLC): 25 µM and 782 µM
- TGI (HS 578T breast): 25 µM and 515 µM
- TGI (K-562 leukemia): 25 µM and > 1 mM
- TGI (MALME-3M melanoma): 21.1 µM and > 1 mM
- TGI (NCI-H226 lung): 25 µM and > 1 mM
- TGI (NCI-H460 lung): 25 µM and > 1 mM
- TGI (OVCAR-4 ovarian): 25 µM and 688 µM
- TGI (PC-3 prostate): 25 µM and > 1 mM
- TGI (SK-MEL-2 melanoma): 24.3 µM and 784 µM
- TGI (SK-MEL-28 melanoma): 22.3 µM and > 1 mM
- TGI (SK-OV-3 ovarian): 12.2 µM and > 718 µM
- TGI (SNB-19 CNS): 25 µM and > 976 µM
- TGI (UACC-62 melanoma): 23.7 µM and > 1 mM
